In paper PMC5892938 one finds binding signal (log2 fold change) data, which are given here for 37 sequences.

The other results are listed elsewhere or left out. At the low end of the ranking the order means little.

The target in this experiment is GST-SBP-SLBP (stem-loop binding protein) (UniProt Q14493). Briefly: targeted RNA Bind-n-Seq.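 Note: DESeq read counts versus GST-SBP nonspecific binding control pulldown.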 To be noted: RBNS binding buffer: 25 mM Tris pH 7.5, 150 mM KCl, 3 mM MgCl2, 0.1% Tween, 0.5 mg/mL BSA, 1 mM DTT; 27 nM protein, 750 pM RNA pool; temperature not stated; high values mean tight binding.
For “GGUCACGUCUCAAUCAACUCUACUUCAGGAGUUUACUCCUGUUUUUUCAACAGCUCGCAGUCAAG”, the binding signal (log2 fold change) was -0.283.

Consider “GGUCACGUCUCAAUCAACUCCUAAGAGGGGGGGAAAACCCCUUUGCCCUCAAAAUCAACAGCUCGCAGUCAAG”, for which the binding signal (log2 fold change) is -0.5.

With “GGUCACGUCUCAAUCAACUCAGUCUCAGGAGUUUACUCCUGCAAUCUCAACAGCUCGCAGUCAAG”, the binding signal (log2 fold change) was -0.0856.

For the sequence “GGUCACGUCUCAAUCAACUCAUCUCCCAGGGAAAUCCCUGGCUAUCUCAACAGCUCGCAGUCAAG”, the binding signal (log2 fold change) came out at 0.114.

In the case of “GGUCACGUCUCAAUCAACUCAAUCUCAGGAGUUUACUCCUGCAAUUUCAACAGCUCGCAGUCAAG”, the binding signal (log2 fold change) is -0.00556.

Take “GGUCACGUCUCAAUCAACUCUAGUCCAGGAGUUUUCUCCUGCAAUUUCAACAGCUCGCAGUCAAG”: the binding signal (log2 fold change) worked out at 0.0136.

As for “GGUCACGUCUCAAUCAACUCUUUAGAGGGGGGGAAAACCCCUUUGCCCUCGUAUUCAACAGCUCGCAGUCAAG”, the binding signal (log2 fold change) was -0.736.

For “GGUCACGUCUCAAUCAACUCUUCCCCCAGGGAAAGCCCUGGCAAACUCAACAGCUCGCAGUCAAG”, the binding signal (log2 fold change) is -0.262.

For “GGUCACGUCUCAAUCAACUCAUAAGAGGGGGGGAAAACCCCUUUGCCCUCAAUUUCAACAGCUCGCAGUCAAG”, the binding signal (log2 fold change) is -0.424.

In the case of “GGUCACGUCUCAAUCAACUCACAAGAGGGGGGGAAAACCCCUUUACCCUCGAAUUCAACAGCUCGCAGUCAAG”, the binding signal (log2 fold change) was -0.471.

On to “GGUCACGUCUCAAUCAACUCAGUUCCAGGAGUUUACUCCUGCAUUCUCAACAGCUCGCAGUCAAG”, for which the binding signal (log2 fold change) amounted to 0.254.

As to “GGUCACGUCUCAAUCAACUCAAUCCCAGGAGUUUACUCCUGUAAUCUCAACAGCUCGCAGUCAAG”, the binding signal (log2 fold change) came to 0.159.

Regarding “GGUCACGUCUCAAUCAACUCAACUUCAGGAGUUUCCUCCUGCUUAUUCAACAGCUCGCAGUCAAG”, the binding signal (log2 fold change) is 0.0602.

As for “GGUCACGUCUCAAUCAACUCUACUUCAGGAGUUUACUCCUGCUUACUCAACAGCUCGCAGUCAAG”, the binding signal (log2 fold change) is -0.0627.

Consider “GGUCACGUCUCAAUCAACUCAACUCCAGGAGUUUGCUCCUGCAUUUUCAACAGCUCGCAGUCAAG”, for which the binding signal (log2 fold change) was 0.187.

As for “GGUCACGUCUCAAUCAACUCAUCCCCCAGGGAAACCCCUGGUUAUCUCAACAGCUCGCAGUCAAG”, the binding signal (log2 fold change) worked out at 0.0283.

For “GGUCACGUCUCAAUCAACUCAUCGCCAGGAGUUUUCUCCUGCAUUUUCAACAGCUCGCAGUCAAG”, the binding signal (log2 fold change) is -0.0451.

Take “GGUCACGUCUCAAUCAACUCAAUCCCAGGAGUUUGCUCCUGCUUUUUCAACAGCUCGCAGUCAAG”: the binding signal (log2 fold change) is -0.178.

In the case of “GGUCACGUCUCAAUCAACUCCUUCGAGGGGGGGAAAACCCCUUUACCCUCUCAUUCAACAGCUCGCAGUCAAG”, the binding signal (log2 fold change) is -0.294.

Consider “GGUCACGUCUCAAUCAACUCUUUCGCAGGAGUUUCCUCCUGGUAUUUCAACAGCUCGCAGUCAAG”, for which the binding signal (log2 fold change) is 0.117.

Regarding “GGUCACGUCUCAAUCAACUCAUUCUCCAGGGAAAUCCCUGGCAAAUUCAACAGCUCGCAGUCAAG”, the binding signal (log2 fold change) is -0.149.

As for “GGUCACGUCUCAAUCAACUCAUCCCCAGGAGUUUGCUCCUGCUUAUUCAACAGCUCGCAGUCAAG”, the binding signal (log2 fold change) was -0.00931.

Turning to “GGUCACGUCUCAAUCAACUCAUUCUCAGGAGUUUCCUCCUGUAAUUUCAACAGCUCGCAGUCAAG”, the binding signal (log2 fold change) was 0.174.

As to “GGUCACGUCUCAAUCAACUCAACUUCAGGAGUUUUCUCCUGCUUUUUCAACAGCUCGCAGUCAAG”, the binding signal (log2 fold change) amounted to 0.0958.

Regarding “GGUCACGUCUCAAUCAACUCUAUCUCAGGAGUUUUCUCCUGUUUAUUCAACAGCUCGCAGUCAAG”, the binding signal (log2 fold change) came to 0.0833.

On to “GGUCACGUCUCAAUCAACUCUUCUUCAGGAGUUUCCUCCUGCAUAUUCAACAGCUCGCAGUCAAG”, for which the binding signal (log2 fold change) was found to be 0.0796.

Turning to “GGUCACGUCUCAAUCAACUCUUUCUCAGGAGUUUUCUCCUGCUUUUUCAACAGCUCGCAGUCAAG”, the binding signal (log2 fold change) was -0.0995.

Regarding “GGUCACGUCUCAAUCAACUCAACUCCCAGGGAAACCCCUGGUUAAUUCAACAGCUCGCAGUCAAG”, the binding signal (log2 fold change) was determined as 0.0188.

Consider “GGUCACGUCUCAAUCAACUCUUUCCCCAGGGAAAUCCCUGGCUAUCUCAACAGCUCGCAGUCAAG”, for which the binding signal (log2 fold change) was determined as 0.154.

For “GGUCACGUCUCAAUCAACUCAGUCUCAGGAGUUUGCUCCUGCUUUUUCAACAGCUCGCAGUCAAG”, the binding signal (log2 fold change) is 0.00409.

With “GGUCACGUCUCAAUCAACUCAGAAGAGGGGGGGAAAACCCCUUUACCCUCAUAAUCAACAGCUCGCAGUCAAG”, the binding signal (log2 fold change) is -0.233.

As to “GGUCACGUCUCAAUCAACUCUUCGCCAGGAGUUUCCUCCUGUAAUCUCAACAGCUCGCAGUCAAG”, the binding signal (log2 fold change) turned out to be 0.143.

For “GGUCACGUCUCAAUCAACUCUACUUCCAGGGAAAACCCUGGCUUUCUCAACAGCUCGCAGUCAAG”, the binding signal (log2 fold change) is -0.16.

For the sequence “GGUCACGUCUCAAUCAACUCAUCAGAGGGGGGGAAAACCCCUUUACCCUCAUUCUCAACAGCUCGCAGUCAAG”, the binding signal (log2 fold change) was -0.205.

Turning to “GGUCACGUCUCAAUCAACUCAAACGAGGGGGGGAAAACCCCUUUACCCUCUAUAUCAACAGCUCGCAGUCAAG”, the binding signal (log2 fold change) was -0.304.

Turning to “GGUCACGUCUCAAUCAACUCUACUUCAGGAGUUUUCUCCUGUAAAUUCAACAGCUCGCAGUCAAG”, the binding signal (log2 fold change) was found to be 0.0808.

In the case of “GGUCACGUCUCAAUCAACUCAUUUCCAGGAGUUUUCUCCUGCAAACUCAACAGCUCGCAGUCAAG”, the binding signal (log2 fold change) stood at 0.00373.
